This is an account of results in the supplement of paper PMC11060735.

Molecules are shown by their SMILES. Structures can show the parent of a compound that is named as a salt. The whole screen tested about 1,800 compounds, of which about 50 (3%) showed activity. This is one part of the list.
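Further: fibroblasts sorted 14 days after bleomycin, GFP+ and GFP− mixed 1:1 in 384-well plates (GFP− as in-well control), imaged after Hoechst and NucView530 staining, reference wells lacked compound.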

The subject of this experiment is mouse p16Ink4a+/- lung fibroblasts (INKBRITE, bleomycin-injured). Nature of the experiment: percentage of GFP+ (p16Ink4a+) fibroblasts among all cells in well; higher = less depletion of p16Ink4a+ cells, active = 20 or less. To be noted: 1 µM; 3 days.
As for `CCCNC(C)C(=O)Nc1c(C)csc1C(=O)OC` (configuration not stated) [Articaine], the “percentage of GFP+” value is inactive: 49.4%.
The value for `CN(C)CCC(c1ccccc1)c1ccccn1` (configuration not stated) [Pheniramine] was inactive: 49.3%; that for `C[N+]1(C)[C@@H]2C[C@@H](OC(=O)C(O)(c3cccs3)c3cccs3)C[C@H]1[C@@H]1O[C@@H]12` [Tiotropium] was inactive: 38.9%.
The value for `COc1ccc2cc1Oc1ccc(cc1)C[C@H]1c3cc(c(OC)cc3CCN1C)Oc1c(OC)c(OC)cc3c1[C@H](C2)N(C)CC3` [Tetrandrine] was inactive: 44.8%.
Next, `Cc1ccc2nc(NCCN)c3ncc(C)n3c2c1`: inactive: 42.3%.
`CCc1cc2c(cc1N1CCC(N3CCOCC3)CC1)C(C)(C)c1[nH]c3cc(C#N)ccc3c1C2=O` [Alectinib]: the “percentage of GFP+” value was inactive: 39.9%.
Next, `COc1cc(Nc2nc3ccccc3nc2NS(=O)(=O)c2ccc(NC(=O)c3ccc(C)c(OC)c3)cc2)cc(OC)c1`: inactive: 37.4%; `Nc1ccc(C(=O)NCC(=O)O)cc1` [Aminohippuric Acid]: inactive: 42.9%; `NS(=O)(=O)Cc1noc2ccccc12` [Zonisamide]: inactive: 27.5%.
Turning to `COc1cc2c(cc1Cc1cccc(Cl)c1F)c(=O)c(C(=O)O)cn2[C@H](CO)C(C)C` [Elvitegravir], the “percentage of GFP+” value is inactive: 26.3%.
As for `Cc1cnc(Nc2ccc(OCCN3CCCC3)cc2)nc1Nc1cccc(S(=O)(=O)NC(C)(C)C)c1`, the “percentage of GFP+” value is inactive: 40.9%.
Take `C[C@@H](O)[C@H]1C(=O)N2C(C(=O)O)=C(S[C@@H]3CN[C@H](CNS(N)(=O)=O)C3)[C@H](C)[C@H]12` [Doripenem]: the “percentage of GFP+” value was inactive: 39.8%.
`Cn1cnc(N)c2ncnc1-2` [3-Methyladenine]: the “percentage of GFP+” value is inactive: 45.9%.
Next, `C=CCNC(N)=S` [Allylthiourea]: inactive: 35%.
Regarding `Cc1ccc(C)c(OCCCC(C)(C)C(=O)O)c1` [Gemfibrozil], the “percentage of GFP+” value is inactive: 46.1%.
The value for `O=C(O)C[C@H](O)C[C@H](O)/C=C/c1c(C2CC2)nc2ccccc2c1-c1ccc(F)cc1` [Pitavastatin Calcium] was inactive: 22.1%; that for `CO/C(O)=C1\C(C)=NC(C)=C(C(=O)O[C@@H]2CCCN(Cc3ccccc3)C2)[C@@H]1c1cccc([N+](=O)[O-])c1` [Benidipine] was inactive: 41.8%.
Next, `Cn1c([N+](=O)[O-])cnc1COC(N)=O` [Ronidazole]: inactive: 49.8%; `C[C@]12C=CC(=O)C=C1CC[C@H]1[C@@H]3C[C@@H](O)[C@](O)(C(=O)CO)[C@@]3(C)C[C@H](O)[C@@]12F` [Triamcinolone]: inactive: 32%.
As for `NCC(=O)CCC(=O)O` [Aminolevulinic acid], the “percentage of GFP+” value is inactive: 40.8%.
As for `CCN1CCN(c2ccc(Nc3cc(N(C)C(=O)Nc4c(Cl)c(OC)cc(OC)c4Cl)ncn3)cc2)CC1`, the “percentage of GFP+” value is inactive: 32.4%.
The value for `NCCS` [Cysteamine] was inactive: 52.9%; that for `COC(=O)CCc1ccc(OCC(O)CNC(C)C)cc1` (configuration not stated) [Esmolol, Esmolol Hydrochloride] was inactive: 48.2%.
With `[K]` [Potassium Iodide], the “percentage of GFP+” value was inactive: 53.2%.
As for `NC(=O)N1c2ccccc2CC(=O)c2ccccc21` [Oxcarbazepine, Trileptal], the “percentage of GFP+” value is inactive: 46.9%.
The value for `O=C(c1cc(Cc2nnc(O)c3ccccc23)ccc1F)N1CCN(C(=O)C2CC2)CC1` [Olaparib] was inactive: 42.4%.
Next, `COC(=O)C1=CO[C@@H](O)[C@@H]2C(CO)=CC[C@H]12` [Genipin]: inactive: 38.5%.
For the molecule `CCC(C)n1ncn(-c2ccc(N3CCN(c4ccc(OC[C@H]5CO[C@](Cn6cncn6)(c6ccc(Cl)cc6Cl)O5)cc4)CC3)cc2)c1=O` (some centres not stated) [Itraconazole], the “percentage of GFP+” value is inactive: 37.9%.
Take `CCOC(=O)[C@H](CCc1ccccc1)N[C@@H](C)C(=O)N1Cc2ccccc2C[C@H]1C(=O)O` [Quinapril]: the “percentage of GFP+” value was inactive: 41.2%.
The value for `Nc1nc(O)c2[nH]nnc2n1` [8-azaguanine] was inactive: 49.2%.
The value for `C[C@H]1[C@H](O)O[C@@H]2O[C@@]3(C)CC[C@H]4[C@H](C)CC[C@@H]1[C@@]24OO3` [Dihydroartemisinin (DHA)] was inactive: 32.4%.
Regarding `CN(C)c1ccc(-c2nc3c(N4CCN(CC(=O)Nc5nccs5)CC4)c(Cl)cnc3[nH]2)cc1`, the “percentage of GFP+” value was inactive: 45.4%.
Next, `CCCOc1ccc2[nH]c(NC(=O)OC)nc2c1` [Oxybendazole, Oxibendazole]: inactive: 20.8%; `O=C(O)Cc1cc(I)c(Oc2ccc(O)c(I)c2)c(I)c1` [Tiratricol]: inactive: 53.7%.
Consider `CCCCCCCCOc1ccccc1C(=O)Nc1ccc(C(=O)OCC[N+](C)(CC)CC)cc1` [Otilonium Bromide], for which the “percentage of GFP+” value was inactive: 47.1%.
As for `C[C@@H]1O[C@@H](Oc2c(-c3cc(O)c(O)c(O)c3)oc3cc(O)cc(O)c3c2=O)[C@H](O)[C@H](O)[C@H]1O` [Myricitrin], the “percentage of GFP+” value was inactive: 43.9%.
Next, `O=C1NCC2(CCN(CCc3ccccc3)CC2)O1` [Fenspiride]: inactive: 44%.
The value for `CNCCCC12CCC(c3ccccc31)c1ccccc12` [Maprotiline] was inactive: 38.1%; that for `OC[C@H]1O[C@@H](Oc2cc(O)cc(/C=C/c3ccc(O)cc3)c2)[C@H](O)[C@@H](O)[C@@H]1O` [Piceid] was inactive: 42.3%.
With `CCNC(=O)CCC/C=C\C[C@@H]1[C@@H](/C=C/C(O)CCc2ccccc2)[C@@H](O)C[C@@H]1O` (some centres not stated) [Bimatoprost], the “percentage of GFP+” value was inactive: 33.1%.
Next, `CCCNC(=O)NS(=O)(=O)c1ccc(Cl)cc1` [Chlorpropamide]: inactive: 48.7%.
Consider `O=C(NS(=O)(=O)c1ccc(Br)s1)c1ccc(Cl)cc1Cl` [Tasisulam], for which the “percentage of GFP+” value was inactive: 45%.
The value for `CNCc1ccc(-c2[nH]c3cc(F)cc4c3c2CCNC4=O)cc1` [Rucaparib] was inactive: 45.1%; that for `CCCCCCCN(CC)CCCC(O)c1ccc(NS(C)(=O)=O)cc1` (configuration not stated) [Ibutilide] was inactive: 38.7%.
Next, `COc1ccccc1N1CCN(CCN2C(=O)CC3(CCCC3)CC2=O)CC1` [Bmy 7378 Dihydrochloride]: inactive: 43.4%.
The value for `Oc1cc2c(cc1O)[C@@H]1c3ccc(O)c(O)c3OC[C@]1(O)C2` [Hematoxylin] was inactive: 37.7%; that for `CC[C@@H]([C@H](C)O)n1ncn(-c2ccc(N3CCN(c4ccc(OC[C@@H]5CO[C@@](Cn6cncn6)(c6ccc(F)cc6F)C5)cc4)CC3)cc2)c1=O` [Posaconazole] was inactive: 25.4%.
Consider `Cc1ccc(-n2nc(C)c(N=Nc3cccc(-c4cccc(C(=O)O)c4)c3O)c2O)cc1C` [Eltrombopag], for which the “percentage of GFP+” value was inactive: 46.6%.
For the molecule `CNCCc1ccccn1` [Betahistine], the “percentage of GFP+” value was inactive: 43.8%.
Next, `CC(=O)O[C@]1(C(C)=O)CC[C@H]2[C@@H]3C[C@H](C)C4=CC(=O)C=C[C@]4(C)[C@@]3(F)[C@@H](O)C[C@@]21C` [Fluorometholone Acetate]: inactive: 37.1%.
Next, `Cc1ccnc2c1NC(=O)c1cccnc1N2C1CC1` [Nevirapine]: inactive: 38.4%; `NCCCCCC(=O)O` [Aminocaproic Acid]: inactive: 48.1%; `CC(C)CCNC(=O)[C@H](CC(C)C)NC(=O)[C@H]1O[C@@H]1C(=O)O` [Loxistatin Acid]: inactive: 45.9%.
The value for `CC(C)N(CCC(=O)c1ccc2ccccc2c1)Cc1ccccc1` was inactive: 47.9%.
In the case of `CCOc1cc([C@@H](CS(C)(=O)=O)N2C(=O)c3cccc(NC(C)=O)c3C2=O)ccc1OC` [Apremilast], the “percentage of GFP+” value was inactive: 45.5%.
Next, `COc1ccc(-c2coc3cc(O)cc(O)c3c2=O)cc1` [Biochanin A]: inactive: 35%; `O=C(O)CCCC[C@@H]1SC[C@@H]2NC(=O)N[C@@H]21` [Biotin, Vitamin B7]: inactive: 40%.
Take `Nc1ccc(S(=O)(=O)Nc2ncccn2)cc1` [Sulfadiazine]: the “percentage of GFP+” value is inactive: 56.3%.
As to `CC(C)CCN1c2nc(Nc3cc(F)c(O)c(F)c3)ncc2N(C)C(=O)C1C` (configuration not stated), the “percentage of GFP+” value was inactive: 44.4%.
The value for `CC(C(=O)O)c1cccc(C(=O)c2ccccc2)c1` (configuration not stated) [Ketoprofen] was inactive: 34.9%; that for `Nc1ccc(S(=O)(=O)Nc2ccccn2)cc1` [Sulfapyridine] was inactive: 44.1%; that for `C=C1c2cccc(O)c2C(O)=C2C(=O)[C@]3(O)C(O)=C(C(N)=O)C(=O)[C@@H](N(C)C)[C@@H]3[C@@H](O)[C@H]12` [Methacycline] was inactive: 41.2%.
The value for `CCOC(=O)[C@H]1O[C@@H]1C(=O)N[C@@H](CC(C)C)C(=O)NCCC(C)C` [Aloxistatin] was inactive: 52.8%.
Regarding `CCn1cc(C(=O)O)c(=O)c2cc(F)c(N3CCNC(C)C3)c(F)c21` (configuration not stated) [Lomefloxacin], the “percentage of GFP+” value is inactive: 44%.
Regarding `Nc1ncnc2[nH]nc(Nc3ccc(F)cc3)c12`, the “percentage of GFP+” value is inactive: 46.8%.
For the molecule `O=C1c2ccc(Nc3ccc(F)cc3F)cc2CCc2ccc(OC[C@H](O)CO)cc21` [Skepinone-L], the “percentage of GFP+” value is inactive: 45.4%.
For `CO/N=C(/C(=O)N[C@H]1C(=O)N2C(C(=O)O)=C(Cn3ccc(=N)n3CCO)CS[C@H]12)c1csc(N)n1` [Cefoselis Sulfate], the “percentage of GFP+” value is active: 17.3%.
Next, `Cc1cccc(-c2[nH]c(C(C)(C)C)nc2-c2ccc3c(c2)OCO3)n1`: inactive: 55.4%; `Nc1nc(Cl)nc2c1ncn2[C@H]1C[C@H](O)[C@@H](CO)O1` [Cladribine]: inactive: 30.4%.
Regarding `CC(=O)c1c(C)c2cnc(Nc3ccc(N4CCNCC4)cn3)nc2n(C2CCCC2)c1=O` [Palbociclib], the “percentage of GFP+” value was inactive: 34.5%.
In the case of `COC(=O)Nc1nc2cc(Sc3ccccc3)ccc2[nH]1` [Fenbendazole], the “percentage of GFP+” value is inactive: 20.8%.
The value for `C#C[C@]1(O)CC[C@H]2[C@@H]3CCc4cc(O)ccc4[C@H]3CC[C@@]21C` [Ethinyl Estradiol] was inactive: 40.7%.
